Measurements from the supplement of paper PMC3334620.
Over roughly 33,000 sequences, “E-score (-0.5 to 0.5)” has its median near -0.04; the highest 2% begin near 0.36. This is one part of the list.

The sequences below were run against T1, Hmlalpha2 (UniProt P0CY09) (assay: PBM E-score (8-mer binding enrichment) (E-score (-0.5 to 0.5)); higher = stronger / more preferred TF binding; most listed sequences are background and not binding sites). Details: protein concentration: 200 nM; construct: GST-full length.
T1 sequence: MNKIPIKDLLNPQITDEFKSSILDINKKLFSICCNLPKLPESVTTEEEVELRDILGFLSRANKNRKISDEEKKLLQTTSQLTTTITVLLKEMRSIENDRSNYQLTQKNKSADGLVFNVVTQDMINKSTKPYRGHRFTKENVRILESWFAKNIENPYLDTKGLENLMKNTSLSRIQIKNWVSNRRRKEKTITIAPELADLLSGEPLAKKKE
Method: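 Universal 'all 10-mer' protein binding microarrays (Agilent AMADID 015681) probed with GST-tagged S. cerevisiae TFs (full-length or DBD) made by in vitro transcription/translation (PURExpress), about 100-200 nM. Bound TF was detected with fluorescent anti-GST. Each ungapped 8-mer (which stands for itself and its reverse complement) is scored by the PBM enrichment score (E-score), a modified Wilcoxon-Mann-Whitney statistic from -0.5 to +0.5, computed with the Universal PBM Analysis Suite. Scale: above 0.35 generally sequence-specific binding.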

Sequence	PBM E-score
GCTGCTCA	-0.0809
ATGGATCG	0.0875
AGAACTAC	0.0478
CACCGCTG	-0.119
GAAGCCAA	-0.276
CAGCATGC	0.0476
ATGGCTCG	-0.1
CGACAAGA	0.0828
ATCCTTCC	-0.239
TGCGCGCA	0.196
CTCACTCA	-0.031
ATAGGGAA	-0.214
GGCACTCA	-0.166
TAATTAGA	0.167
AATGCCGG	-0.0387
TGACATCA	0.0838
ACACGTTC	0.303
AGCCATTA	0.139
ACCATCGA	0.00536
GTCAGCAA	0.0177
AAGAAACC	-0.114
ACATTTGA	0.239
AATCTTGC	0.00926
TAAGCGAA	0.122
ACGGCCGG	-0.202

Sequence	PBM E-score
CATAGGCC	0.0507
GTTGCAAC	0.128
CTACATAA	0.317
CTAAAGTC	-0.213
TATAACCA	0.118
ACTATTAC	0.304
CCTGGAGC	-0.146
AAGAGCTA	0.0655
CTTGGCGA	-0.179
CAAGGATG	0.0173
AGACCAAC	-0.0666
CCAACCTC	-0.128
GGCTCAAA	-0.206
ACTCGCCC	-0.231
AAAAATAT	0.125
GCGATCAC	-0.0522
CGTGAACG	-0.104
CCATTCCC	-0.33
ACGCTATG	0.0929
CTAGGATA	-0.0196
AAAACGTA	0.27
CGTTCACC	-0.108
ATTGATTG	0.093
GCTTTAAC	0.236
ATAAATTG	0.228

Sequence	PBM E-score
AAAACATA	0.39
AGTATCTC	-0.0491
AATACGTG	0.383
GACGGATC	-0.0606
GACTTTGC	-0.165
CCCGCGCG	-0.029
GAGAGAAA	-0.0112
GCCAGCTA	0.0125
GGCCGGAC	-0.244
CGGGTGAA	0.0356
ATCCAGGG	-0.156
CTGCCTAC	0.0431
CGTCGCCA	-0.158
AGTCCGGG	-0.136
GCTATTCA	0.0214
GGACCCAA	-0.35
TAACCGTA	-0.0541
AGCACCTG	-0.155
GCTATACC	-0.0501
CGCTCACC	-0.249
AATGCCAA	-0.0654
ACCTGCCC	-0.191
AAACAAGC	0.217
AACGGTCC	-0.257
GTTACGGA	0.0213

Sequence	PBM E-score
ACACTCAA	0.163
TACTCGCA	0.0348
AAGCTACC	0.0752
GGCCCGAC	-0.353
AACTCTTA	0.21
ATGTATTA	0.428
ATCGAGGA	-0.0222
CGCACCGC	-0.177
GACATCGA	-0.0282
ATTTGTTC	0.235
ACTCTCTG	-0.0846
CGCACGCC	-0.0875
GGTCGTAA	0.159
AAGGTGCG	-0.0969
GCTGTACC	-0.204
CCGGGACA	-0.151
AGGATTAG	-0.0382
GAGACAAC	-0.00556
AAAGCAGT	-0.0605
AGGTTAAT	0.182
ACTCAGAA	-0.0459
CAGACCTG	-0.258
AACGAGGG	-0.0141
CTTATCTC	-0.178
GAGTGTCC	-0.156

Sequence	PBM E-score
ACATTCAA	-0.0317
AGGCATAC	0.0104
AATAACCT	0.104
AATGGCCC	-0.159
ACGTCACG	0.102
CGGAATGC	-0.258
CCATCATA	-0.288
GAGGTGAC	-0.131
AGCTTACC	-0.218
GCTGAAAA	0.136
AACACCAC	0.127
AGTAGTCA	-0.00856
CGGATCCA	-0.216
GAAGGCTA	-0.15
CTATGAAC	0.131
CTGAGAAA	0.00705
CTCTTTTC	-0.175
AACACGAA	0.386
GACGTGTA	0.41
AAGATGCG	-0.191
CTCCCGGA	-0.296
AGGTTTAC	0.258
AGAGGACT	-0.34
GGGTATCA	-0.118
ATCCGATA	-0.0739

Sequence	PBM E-score
AAGTACAA	0.199
CTCCCCTC	-0.202
CACGACAA	0.197
TCGATCCA	0.0594
ATGCGCGA	-0.122
ATCACAAG	0.137
ACTGGAGA	-0.264
ATGCTTGA	0.0548
ATCAGCAA	-0.23
AAAGACCC	0.0299
CAAAGTTG	0.0739
AAGAACAT	0.309
CACATCGA	0.0215
ATATTCGC	0.0866
AAGGGGAT	-0.102
GTCCGAGA	0.0129
TCCCCGCA	-0.18
CGGCTAGC	-0.207
GGCCAAAC	-0.191
CATTGGCA	-0.0452
AGTCTTGG	-0.169
AACTCACT	0.0592
CAGATAGG	-0.315
AGCGATAC	-0.0227
TCATGCAA	0.107

Sequence	PBM E-score
CTGAATAC	0.204
AAATCTCC	-0.309
CAGAAAAG	-0.076
AAGTCGAT	-0.189
AATCCAGC	-0.184
CTGGAGAA	-0.295
CAATTCGG	-0.0581
ACTCATCT	0.0274
GATACCCC	-0.251
AGCCCCAA	-0.28
CCTATGTC	0.0957
CCACACTA	0.0316
GAAATCGC	-0.165
ACGCGCAG	0.074
AACTGTTC	-0.125
CCCCCTAG	-0.418
GGCAGGCA	-0.26
GTGGACTA	0.0385
CCTCAAGC	-0.233
AAGCGGTG	-0.0759
ACGCGCCT	0.21
GTGCGGGA	-0.122
